Experimental data as given in the supplement of paper PMC10126150.
Values marked as one replicate rest on one cluster of the flow cell; about a third of the high ones do not repeat.

System: ATP
Test: switch fluorescence ratio, 500 uM ATP over buffer (Cy3 cluster intensity, sum of 5 cycles each) (fold (ratio)); higher = stronger signal-on switching upon ATP binding; sequences stand for … in TCGTCGGCAGCGTCAGATGTGTATAAGAGACAGTTTTTTTTTTTTTTTTTTTTTTTTT…TC
Conditions: aptamer strand: ATP DNA aptamer (quencher-CACCTGGGGGAGTATTGCGGAGGAAGG + anchor), 100 nM annealed; ATP concentration: 500 uM; one replicate
Method in brief: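 For every switch-domain sequence, the fluorescence ratio is the mean of per-cluster values, each being summed target-cycle Cy3 intensity over summed buffer-cycle Cy3 intensity. Clusters outside 100-1000 RFU were excluded. On a modified Illumina MiSeq flow-cell, the Cy3-labelled switching-strand clusters were annealed to 100 nM quencher-labelled ATP aptamer, imaged in selection buffer and then after 15 min with 500 uM ATP at 22 °C. Five such cycles were run, with NaOH stripping and re-annealing between them.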
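Also: ATP exposure 15 min at 22 °C before imaging.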

| Sequence | switch fluorescence ratio |
| --- | --- |
| CCTGCTTACT | 2.56 |
| CCTGGACTGT | 1.05 |
| CCTGGCCAGG | 1.06 |
| CCTGGCGAAA | 1.15 |
| CCTGGGCGCA | 1.17 |
| CCTGGGCTTT | 1.02 |
| CCTGGGGCCG | 0.964 |
| CCTGGTATAA | 1.02 |
| CCTGGTCCGA | 1.08 |
| CCTGGTTTA | 1.02 |
| CCTGTAGTTA | 1.04 |
| CCTGTGCCGA | 1.09 |
| CCTGTGCTGG | 1.31 |
| CCTGTGGGCA | 0.994 |
| CCTGTGGTTA | 0.993 |
| CCTGTTGCCG | 1.04 |
| CCTGTTTCGA | 1.02 |
| CCTGTTTTAA | 0.981 |
| CCTTAAGAAC | 1.23 |
| CCTTAAGTGG | 1.01 |
| CCTTAATGAG | 1.01 |
| CCTTACAGAT | 1.06 |
| CCTTACTTTC | 1.1 |
| CCTTAGGAAT | 1.01 |
| CCTTAGGGG | 1.06 |

| Sequence | switch fluorescence ratio |
| --- | --- |
| CCTTATCTCA | 1.03 |
| CCTTATTGTA | 1.01 |
| CCTTCGGAGC | 4.32 |
| CCTTCGGCGG | 1.27 |
| CCTTCTTAGG | 1.02 |
| CCTTGACCAG | 1.01 |
| CCTTGAGTAT | 1.03 |
| CCTTGAGTCG | 1.01 |
| CCTTGATGTA | 0.97 |
| CCTTGCGTCC | 1.48 |
| CCTTGGGTCG | 1.01 |
| CCTTGTATTG | 0.954 |
| CCTTGTGCTC | 1.28 |
| CCTTGTTTCG | 1.07 |
| CCTTTATAAG | 0.987 |
| CCTTTCACGC | 2.85 |
| CCTTTCTTA | 1.08 |
| CCTTTTAGC | 1.05 |
| CCTTTTGGA | 1.03 |
| CCTTTTTCAT | 1.01 |
| CGAAAAATGT | 1.03 |
| CGAAAAGATA | 1.02 |
| CGAAAAGATT | 1.03 |
| CGAAACGAGG | 1.02 |
| CGAAACTTCG | 1.06 |

| Sequence | switch fluorescence ratio |
| --- | --- |
| CGAAAGAAAG | 1.01 |
| CGAAAGGATA | 1.04 |
| CGAAAGTCTG | 1.03 |
| CGAAAGTGGT | 0.999 |
| CGAAAGTTGG | 0.964 |
| CGAAATGCGA | 1.92 |
| CGAAATGGTG | 0.943 |
| CGAACACCTT | 1.13 |
| CGAACACGGA | 0.976 |
| CGAACCCCTA | 1.13 |
| CGAACCGATG | 1.1 |
| CGAACGAAAG | 1.06 |
| CGAACGGATC | 1.35 |
| CGAACTGACC | 1.25 |
| CGAACTGATA | 1.04 |
| CGAACTTCTG | 0.975 |
| CGAACTTTAT | 1.02 |
| CGAAGGAGGT | 1.04 |
| CGAAGGCCTA | 1 |
| CGAAGGTACA | 1.08 |
| CGAAGGTACG | 0.945 |
| CGAATACGCG | 1.04 |
| CGAATAGCTG | 0.97 |
| CGAATAGGTT | 0.966 |
| CGAATAGTAG | 1.04 |

| Sequence | switch fluorescence ratio |
| --- | --- |
| CGAATCATGG | 0.965 |
| CGAATCCCCG | 1.28 |
| CGAATCGGAT | 1.01 |
| CGAATCTTTC | 1.26 |
| CGAATGAAAG | 0.972 |
| CGAATGTTG | 0.948 |
| CGAATTAGCT | 1.03 |
| CGAATTGTAG | 0.989 |
| CGAATTTTGG | 1 |
| CGACACATTC | 3.22 |
| CGACAGATCA | 0.969 |
| CGACATGTCC | 1.02 |
| CGACCCTTGC | 1.33 |
| CGACCCTTTC | 1.51 |
| CGACCGCCTC | 4.17 |
| CGACGACCGT | 1.08 |
| CGACGATGCG | 1.02 |
| CGACGCTAGG | 2.96 |
| CGACGGATTG | 0.985 |
| CGACTCAGGC | 1.42 |
| CGACTCGTGC | 1.29 |
| CGACTGAAG | 1.02 |
| CGACTGCCTA | 1.12 |
| CGACTGGAGA | 1.05 |
| CGACTTTCGA | 1.04 |

| Sequence | switch fluorescence ratio |
| --- | --- |
| CGAGAAACGA | 1.03 |
| CGAGAACGTT | 0.993 |
| CGAGAACTTA | 0.977 |
| CGAGACATAG | 0.944 |
| CGAGACTTCA | 1.05 |
| CGAGAGCCTG | 0.943 |
| CGAGAGGGAT | 1.02 |
| CGAGCAGAAC | 4.33 |
| CGAGCCAAGA | 1.07 |
| CGAGCGGGCT | 0.993 |
| CGAGCGTGTA | 1.03 |
| CGAGCTGGCT | 1.04 |
| CGAGGCAGGA | 2.15 |
| CGAGGCGCTG | 1.02 |
| CGAGGCTAGC | 1.26 |
| CGAGGGAAGG | 1.15 |
| CGAGGGAGAT | 0.975 |
| CGAGGGCCTA | 1 |
| CGAGGGGAAT | 1.06 |
| CGAGGGGTAT | 2.54 |
| CGAGGGTCAC | 1.03 |
| CGAGTATTCG | 0.963 |
| CGATAACTTT | 1.03 |
| CGATAATTCG | 1.02 |
| CGATAATTGT | 0.99 |

| Sequence | switch fluorescence ratio |
| --- | --- |
| CGATACGTAG | 1.05 |
| CGATACTGCA | 1.06 |
| CGATAGAAGG | 0.983 |
| CGATAGATCT | 0.961 |
| CGATAGGTCG | 0.977 |
| CGATATATCG | 1.02 |
| CGATATATGG | 0.986 |
| CGATCATAGA | 1.03 |
| CGATCATATA | 1.02 |
| CGATCGAATT | 1.01 |
| CGATCGACGT | 1.04 |
| CGATCGTATT | 1.09 |
| CGATCTAAAC | 1.06 |
| CGATGAATTA | 1.04 |
| CGATGCATTT | 1.48 |
| CGATGCTAAT | 1.32 |
| CGATGGAAAC | 1.72 |
| CGATGGATTA | 1.03 |
| CGATGTAGCA | 0.991 |
| CGATTAAGAG | 0.969 |
| CGATTCGATA | 0.995 |
| CGATTGGCGA | 1.03 |
| CGATTGTAT | 1.03 |
| CGATTTTTTA | 1 |
| CGCAACCGCA | 1.26 |

| Sequence | switch fluorescence ratio |
| --- | --- |
| CGCAACGTCC | 1.19 |
| CGCAACTGTT | 1.22 |
| CGCAAGTT | 1.41 |
| CGCACGGCGT | 1 |
| CGCACTGGGC | 1.02 |
| CGCAGCCGAG | 1.13 |
| CGCAGCTTCG | 1.16 |
| CGCAGGAGTC | 1.49 |
| CGCAGGGCTG | 1.03 |
| CGCAGGGTAA | 1.03 |
| CGCAGGTAAA | 1.02 |
| CGCAGTAAAA | 1.08 |
| CGCAGTTTCT | 1.1 |
| CGCATAATCT | 2.17 |
| CGCATACGTG | 1.53 |
| CGCATCCCAT | 1.24 |
| CGCATCCTAA | 1.1 |
| CGCATCTCAG | 1.24 |
| CGCATTATT | 1.77 |
| CGCATTCGCA | 1.15 |
| CGCATTGTAG | 1.04 |
| CGCATTTCGG | 1.08 |
| CGCCAAGGCC | 1.02 |
| CGCCAATAGT | 2.5 |
| CGCCACATGG | 1.95 |

| Sequence | switch fluorescence ratio |
| --- | --- |
| CGCCATACTT | 4.53 |
| CGCCCCTGAC | 1.6 |
| CGCCGACGGA | 1.06 |
| CGCCGGACT | 1.04 |
| CGCCGGGCAC | 1.24 |
| CGCCGTCGTC | 1.01 |
| CGCCGTTTCT | 0.972 |
| CGCCTAATGG | 1.07 |
| CGCCTAGGGG | 1.55 |
| CGCCTATTCG | 0.98 |
| CGCCTTACCT | 1.19 |
| CGCCTTTATG | 0.958 |
| CGCGAATATG | 0.994 |
| CGCGACAGAG | 1.01 |
| CGCGACATAT | 1.1 |
| CGCGACCTT | 1.1 |
| CGCGACTTTA | 1.07 |
| CGCGAGCGGT | 1.04 |
| CGCGATACGG | 1.37 |
| CGCGCACTTT | 1.07 |
| CGCGCAGTG | 1.07 |
| CGCGCCACGG | 1.09 |
| CGCGCCTGAA | 1.02 |
| CGCGGAGGAT | 0.971 |
| CGCGGATTGC | 1.24 |
